The results in this text go back to the supplement of paper PMC3334620.

The full ranking holds about 33,000 sequences; the median of “E-score (-0.5 to 0.5)” is about -0.041, and the highest 2% start at about 0.37. The list shows a part of the results.

This assay has as its target T1, Ecm22 (UniProt Q05958).
T1 sequence: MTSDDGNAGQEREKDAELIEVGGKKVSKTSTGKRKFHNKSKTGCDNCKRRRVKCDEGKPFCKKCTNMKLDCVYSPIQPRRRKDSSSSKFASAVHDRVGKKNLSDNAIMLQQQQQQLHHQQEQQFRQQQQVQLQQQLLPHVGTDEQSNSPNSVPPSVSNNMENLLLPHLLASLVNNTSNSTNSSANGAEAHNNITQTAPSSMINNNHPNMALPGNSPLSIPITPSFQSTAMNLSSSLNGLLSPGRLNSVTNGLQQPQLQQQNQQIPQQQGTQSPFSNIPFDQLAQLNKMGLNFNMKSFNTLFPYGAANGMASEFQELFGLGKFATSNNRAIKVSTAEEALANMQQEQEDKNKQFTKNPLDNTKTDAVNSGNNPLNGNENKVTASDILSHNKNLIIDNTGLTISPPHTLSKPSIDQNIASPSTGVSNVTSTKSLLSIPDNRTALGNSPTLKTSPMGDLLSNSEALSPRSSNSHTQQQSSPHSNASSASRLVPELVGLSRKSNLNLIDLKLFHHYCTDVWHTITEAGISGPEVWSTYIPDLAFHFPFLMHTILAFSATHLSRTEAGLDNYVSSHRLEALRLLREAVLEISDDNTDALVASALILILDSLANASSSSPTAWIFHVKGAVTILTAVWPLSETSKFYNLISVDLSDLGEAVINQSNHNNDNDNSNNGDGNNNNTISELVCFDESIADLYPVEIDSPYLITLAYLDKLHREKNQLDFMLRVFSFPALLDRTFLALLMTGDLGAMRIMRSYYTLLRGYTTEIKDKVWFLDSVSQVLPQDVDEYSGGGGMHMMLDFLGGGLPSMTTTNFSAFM
Description: PBM E-score (8-mer binding enrichment) (E-score (-0.5 to 0.5)); higher = stronger / more preferred TF binding; most listed sequences are background and not binding sites. Particulars: protein concentration: 200 nM; construct: GST-full length. The gist of the method:
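Full-length yeast transcription factors or their DNA-binding domains, GST-tagged and expressed with PURExpress, were applied at about 100-200 nM to universal all-10-mer Agilent arrays. These arrays had been made double-stranded by primer extension on fresh or once-stripped slides. Detection used fluorescent anti-GST, normalisation used masliner, and E-scores for ungapped eight-base words pooled with reverse complements came from the Universal PBM Analysis Suite.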
Turning to AAACGCAG, the “PBM E-score” value stood at 0.208.
To AAGTTCAG belongs -0.0681; to CGCTGACC, -0.0863; to AGTTAAGA, -0.182.
On to AGTAGTAG, for which the “PBM E-score” value amounted to 0.0183.
Turning to CCTTACAA, the “PBM E-score” value is -0.151.
For AATATACT, the “PBM E-score” value is -0.0273.
Consider ACTTGCCC, for which the “PBM E-score” value is -0.208.
As to GCTCAGCC, the “PBM E-score” value was -0.16.
To GGGACCAA belongs -0.0638.
In the case of AAGGATTC, the “PBM E-score” value is -0.311.
For CAAACTAA, the “PBM E-score” value worked out at 0.122.
For the sequence CGATCCCG, the “PBM E-score” value stood at 0.0527.
TATGGTGA: the “PBM E-score” value is -0.044.
As for CTCCGCCA, the “PBM E-score” value is -0.248.
Turning to GAGGGGCC, the “PBM E-score” value was -0.0781.
For the sequence ATAAGCTC, the “PBM E-score” value was determined as 0.0611.
In the case of CGAAACCC it was 0.0514; in that of ACACGCTG, -0.159.
As to CATAGTTA, the “PBM E-score” value was 0.0166.
As for ACTTCGCT, the “PBM E-score” value was 0.185.
In the case of AGCGTGGC it was -0.0861.
In the case of CTGTCGGC, the “PBM E-score” value came to 0.0934.
For the sequence GATTTGAC, the “PBM E-score” value was 0.202.
CCAGCTGC: the “PBM E-score” value is -0.292.
As for AATCTATG, the “PBM E-score” value was 0.183.
To GAGGACAA belongs -0.0803; to ATAGCCCA, -0.264; to CCCTGACA, -0.298.
For the sequence CCCCGCGA, the “PBM E-score” value was 0.0886.
In the case of CGGAGGTC it was 0.0662; in that of CAATTTGA, -0.0301; in that of TACAACGA, 0.245.
As for AATACTTG, the “PBM E-score” value is -0.118.
With CACGCAGC, the “PBM E-score” value was -0.0661.
In the case of ATAGATCG it was 0.0896.
AGTACGTC: the “PBM E-score” value turned out to be 0.0542.
For the sequence CAAGTTAG, the “PBM E-score” value was -0.183.
For the sequence CTCTAAAA, the “PBM E-score” value is -0.215.
Consider GCAGCTAC, for which the “PBM E-score” value stood at 7e-05.
In the case of AAGATTTA it was -0.00972; in that of CCCATGCG, -0.11; in that of TATATCAA, 0.0243.
In the case of CGCCTAAA it was -0.0216; in that of AGGTCAGC, 0.16.
For the sequence AGTGACCC, the “PBM E-score” value is -0.138.
On to ATTGATCA, for which the “PBM E-score” value was -0.14.
As for AATATCGC, the “PBM E-score” value was 0.0495.
Turning to CGCGATTA, the “PBM E-score” value amounted to 0.0714.
For CCCAAACA, the “PBM E-score” value worked out at 0.00398.
Consider GAGTTTCA, for which the “PBM E-score” value is -0.116.
Take CCGTTGTA: the “PBM E-score” value came out at 0.0903.
Regarding GCGTGTAC, the “PBM E-score” value worked out at 0.224.
With CCACGCGC, the “PBM E-score” value is -0.163.
On to GATTTCGC, for which the “PBM E-score” value amounted to 0.273.
On to CGCCAACC, for which the “PBM E-score” value is -0.141.
Consider GGTAGAAA, for which the “PBM E-score” value is -0.0913.
Consider GCATCTCC, for which the “PBM E-score” value was -0.263.
Regarding AGCGAAAC, the “PBM E-score” value is 0.314.
For the sequence ACACTCTC, the “PBM E-score” value was -0.0702.
For the sequence CTTTTTCC, the “PBM E-score” value was -0.068.
In the case of CCGCCACA, the “PBM E-score” value is -0.107.
With AGATATAT, the “PBM E-score” value was -0.0126.
Consider AACAACCT, for which the “PBM E-score” value was -0.112.
As to AGGGTATC, the “PBM E-score” value worked out at 0.0248.
AACACGTC: the “PBM E-score” value was -0.0705.
For the sequence AAACAACG, the “PBM E-score” value was 0.173.
Turning to AGGCCTTG, the “PBM E-score” value was -0.189.
Take GAGGTCGA: the “PBM E-score” value was -0.0264.
With GTGGATAA, the “PBM E-score” value was -0.0635.
Take AGAAGCCT: the “PBM E-score” value was -0.149.
Regarding CGGTAGAG, the “PBM E-score” value was -0.127.
As for CGGCCCGC, the “PBM E-score” value was -0.146.
For the sequence AGGCTGGC, the “PBM E-score” value was -0.267.
In the case of AGTCCATG, the “PBM E-score” value is -0.242.
Turning to GCTGATCC, the “PBM E-score” value is -0.155.
With ACCTGAAC, the “PBM E-score” value is -0.123.
Take AAAATATC: the “PBM E-score” value came to 0.0138.
As for AGAATAAC, the “PBM E-score” value was -0.105.
To CGGTACAA belongs 0.214.
With AAGATGGG, the “PBM E-score” value is -0.183.
Turning to CGTTCTAA, the “PBM E-score” value was found to be 0.256.
For the sequence GCCGTCGA, the “PBM E-score” value is -0.125.
In the case of TCACCCAA, the “PBM E-score” value is 0.0174.
Regarding CAACCACC, the “PBM E-score” value is -0.177.
In the case of ATGGAGGG it was -0.294.
Turning to ATTGCCGC, the “PBM E-score” value is -0.111.
Take GGCTCCCA: the “PBM E-score” value was -0.359.
In the case of ACACTTAT, the “PBM E-score” value amounted to 0.0913.
In the case of CACTTCAG it was -0.242.
To AATCCTCT belongs -0.249; to ACCGTACT, 0.285; to ACCGTTGA, 0.0678.
In the case of CTGACCCC, the “PBM E-score” value was -0.149.
